Consider 3 compounds from PubChem BioAssay (NCI).

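Test compounds were applied to cells in 96-well plates for 48 hours at 5 doses. GI50 marks 50% less growth.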 Some entries of the source have several records that differ or are many. They are shown here; other results are not. The source may hold further records. For some assays here: The tests behind the records often covered other concentration ranges, not given here; a value can be the end of its range. For some assays here: Values given together repeat one measurement across runs, samples, wells, individuals or studies. Marks in square brackets tell the records apart. Letters hold for one entry only.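 TGI: total growth inhibition.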 Square brackets hold non-standard residues; d marks the D form. Peptide text beside a SMILES is read from it. Orn = NCCC[CH](N)C(=O)O Bounds are passed on as bounds.

Test systems include OVCAR-4 ovarian; RXF 393 renal; DU-145 prostate; NCI-H522 lung; A498 renal; HOP-92 NSCLC; SK-OV-3 ovarian; SK-MEL-5 melanoma; SK-MEL-2 melanoma; HCT-116 colon; OVCAR-3 ovarian; EKVX NSCLC; SNB-75 CNS; MOLT-4 leukemia; XF 498 CNS; SW-620 colon; K-562 leukemia; SK-MEL-28 melanoma; HCT-15 colon; A549 NSCLC; SF-268 CNS; P388/ADR leukemia; NCI-H23 lung; HT29 colon; DMS 114 small cell lung; OVCAR-8 ovarian; DMS 273 small cell lung; HCC-2998 colon; P388 leukemia; SF-539 CNS; NCI/ADR-RES ovarian; UACC-62 melanoma; LOX IMVI melanoma; KM20L2 colon; COLO 205 colon; SN12C renal; NCI-H226 lung; MALME-3M melanoma; OVCAR-5 ovarian; IGROV1 ovarian; CAKI-1 renal; NCI-H460 lung; HL-60(TB) leukemia; KM12 colon; U251 CNS; DLD-1 colon; SF-295 CNS; M19-MEL melanoma; RPMI-8226 leukemia; SNB-19 CNS; HOP-62 NSCLC; CCRF-CEM leukemia; UO-31 renal; SNB-78 CNS; UACC-257 melanoma.

Holding throughout (experiment): NCI tumour cell line growth inhibition, 48 h

Consider `CC(C)CC1NC(=O)C(CCCN)NC(=O)C(C(C)C)NC(=O)C2CCCN2C(=O)C(Cc2ccccc2)NC(=O)C(CC(C)C)NC(=O)C(CCCN)NC(=O)C(C(C)C)NC(=O)C2CCCN2C(=O)C(Cc2ccccc2)NC1=O` (configuration not stated) (cyclo(FPV[Orn]LFPV[Orn]L); configuration not given here), for which the TGI in the experiment with OVCAR-4 ovarian is 56.7 nM [1 test] and 1.19 µM [mean of 2 tests].

For the compound `COc1cc([C@@H]2c3cc4c(cc3[C@H](O)[C@H]3COC(=O)[C@@H]23)OCO4)cc(OC)c1OC`, the TGI in the experiment on RXF 393 renal was > 100 µM [sample A, 1 test] and 827 nM [sample B, 1 test]; in the experiment on DU-145 prostate it was 672 nM [sample A, mean of 2 tests] and > 10 µM [sample B, mean of 2 tests]; with NCI-H522 lung it was > 100 µM [sample A, mean of 2 tests] and 1.48 µM [sample B, mean of 2 tests]; with A498 renal, > 100 µM [sample A, mean of 2 tests] and 818 nM [sample B, mean of 2 tests]; in the experiment with SK-OV-3 ovarian, > 100 µM [sample A, mean of 2 tests] and 8.73 µM [sample B, 1 test]. For the same compound, the GI50 in the experiment with HOP-92 NSCLC is > 36.8 µM [sample A, mean of 2 tests] and 490 nM [sample B, mean of 2 tests].

Take `COC(=O)C12OCC34C(CC5C(C)=CC(=O)C(O)C5(C)C3C(O)C1O)OC(=O)C(OC(=O)CC(C)C)C24` (configuration not stated): the TGI was 2.91 nM and 213 nM with SK-MEL-5 melanoma; 15.2 nM, 192 nM, 387 nM in the experiment on SK-MEL-2 melanoma; 233 nM [mean of 3 tests] and 125 nM [mean of 4 tests] and 7.52 nM [mean of 7 tests] with HCT-116 colon; 4.93 nM and 159 nM in the experiment on OVCAR-3 ovarian; 30.6 nM and 1.22 µM with EKVX NSCLC; 9.98 nM, 163 nM, 81.2 nM in the experiment with SNB-75 CNS. Further, the TGI was 132 nM [mean of 3 tests] and 811 nM [mean of 5 tests] and 3.24 nM [mean of 6 tests] in the experiment with MOLT-4 leukemia; 4.18 nM, 94 nM, 73.9 nM with XF 498 CNS; 99.4 nM, 341 nM, 1.99 µM in the experiment with SW-620 colon; 39.6 nM and 503 nM in the experiment with K-562 leukemia; 8.52 nM, 135 nM, 53.7 nM in the experiment on SK-MEL-28 melanoma; 27.9 nM, 425 nM, 616 nM with HCT-15 colon. For the same compound, the TGI was 24.3 nM, 437 nM, 102 nM in the experiment on A549 NSCLC; 15.8 nM, 226 nM, 71.8 nM with SF-268 CNS; 79.7 nM and 994 nM in the experiment with P388/ADR leukemia; 9.05 nM, 210 nM, 54.5 nM in the experiment on RXF 393 renal; 3.89 nM, 111 nM, 283 nM in the experiment with NCI-H23 lung; 7.13 nM, 504 nM, 256 nM in the experiment on HT29 colon. In addition, the TGI is 9.76 nM and 572 nM in the experiment with DMS 114 small cell lung; 19.7 nM, 245 nM, 63.1 nM with OVCAR-8 ovarian; 1.76 nM and 19.5 nM in the experiment with DMS 273 small cell lung; 4 nM and 70.9 nM in the experiment on HCC-2998 colon; 3.83 nM and 290 nM with P388 leukemia; 2.28 nM and 52.2 nM with SF-539 CNS. The TGI in the experiment with OVCAR-4 ovarian was 377 nM, 118 nM [mean of 3 tests] and 20.6 nM [mean of 6 tests]; with NCI/ADR-RES ovarian, 24.7 nM and 14.6 µM; in the experiment with UACC-62 melanoma it was 12 nM, 194 nM, 61.6 nM; in the experiment on LOX IMVI melanoma, 3.09 nM, 213 nM, 500 nM; with KM20L2 colon, 31.4 nM, 6.61 µM, 500 nM; in the experiment with COLO 205 colon, 12.4 nM, 1.12 µM, 55.6 nM. In addition, the TGI was 58.5 nM, 3.19 µM, 375 nM in the experiment on SN12C renal; 5.08 nM and 141 nM in the experiment on NCI-H226 lung; 6.03 nM and 64.8 nM in the experiment with MALME-3M melanoma; 11.6 nM, 541 nM, 828 nM in the experiment on OVCAR-5 ovarian; 5.59 nM, 61.7 nM, 69.4 nM with IGROV1 ovarian; 90.8 nM, 1.1 µM, 208 nM with CAKI-1 renal. Also, the TGI in the experiment with NCI-H460 lung was 2.06 nM and 162 nM; in the experiment with HL-60(TB) leukemia, 0.738 nM, 94.8 nM, 500 nM; in the experiment with KM12 colon, 13.5 nM, 494 nM, 65.4 nM; in the experiment on U251 CNS, 7.27 nM and 686 nM; with DLD-1 colon, 13.4 nM, 141 nM, 88.9 nM; in the experiment on SF-295 CNS, 8.58 nM and 346 nM. Moreover, the TGI in the experiment with M19-MEL melanoma was 8.47 nM and 106 nM; in the experiment on RPMI-8226 leukemia, 1.6 nM and 51.1 nM; in the experiment on SNB-19 CNS, 7.65 nM and 2.6 µM; in the experiment on SK-OV-3 ovarian it was 27.4 nM, 2.06 µM, 79.5 nM; with HOP-62 NSCLC, < 16.3 nM, 246 nM, 79.3 nM; with CCRF-CEM leukemia it was 6.68 nM, 140 nM, 316 nM. In addition, the TGI is recorded as 46.7 nM, 2.44 µM, 219 nM with UO-31 renal; 39.2 nM, 1.24 µM, 90.1 nM in the experiment with SNB-78 CNS; 13.2 nM, 343 nM, 62.7 nM in the experiment with UACC-257 melanoma. The GI50 in the experiment with HCT-116 colon is 50 nM [mean of 3 tests] and < 32 nM [mean of 4 tests] and 0.822 nM [mean of 7 tests]; in the experiment with MOLT-4 leukemia, < 32.1 nM [mean of 3 tests] and 50 nM [mean of 5 tests] and 0.211 nM [mean of 6 tests]; in the experiment on K-562 leukemia it was 0.617 nM and 50 nM; in the experiment on OVCAR-4 ovarian, 69.3 nM, 50 nM [mean of 3 tests] and 3.06 nM [mean of 6 tests].
